Reference: article PMC4336329 (PLoS ONE, 2015)
Among all 310,000 compounds or so, about 14,000 (4.5%) showed an effect of 50% or more. Effects have a minus sign here. The list shows a part of the results.

Molecular target: human ether-à-go-go-related gene (hERG) potassium channel (human, UniProt Q12809)
Assay: primary screen, population patch clamp on CHO cells stably expressing hERG
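Also: peak tail current of the secondary pulse compared with the same well before compound.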

Chain of human ether-à-go-go-related gene (hERG) potassium channel (Q12809 whole entry, looked up): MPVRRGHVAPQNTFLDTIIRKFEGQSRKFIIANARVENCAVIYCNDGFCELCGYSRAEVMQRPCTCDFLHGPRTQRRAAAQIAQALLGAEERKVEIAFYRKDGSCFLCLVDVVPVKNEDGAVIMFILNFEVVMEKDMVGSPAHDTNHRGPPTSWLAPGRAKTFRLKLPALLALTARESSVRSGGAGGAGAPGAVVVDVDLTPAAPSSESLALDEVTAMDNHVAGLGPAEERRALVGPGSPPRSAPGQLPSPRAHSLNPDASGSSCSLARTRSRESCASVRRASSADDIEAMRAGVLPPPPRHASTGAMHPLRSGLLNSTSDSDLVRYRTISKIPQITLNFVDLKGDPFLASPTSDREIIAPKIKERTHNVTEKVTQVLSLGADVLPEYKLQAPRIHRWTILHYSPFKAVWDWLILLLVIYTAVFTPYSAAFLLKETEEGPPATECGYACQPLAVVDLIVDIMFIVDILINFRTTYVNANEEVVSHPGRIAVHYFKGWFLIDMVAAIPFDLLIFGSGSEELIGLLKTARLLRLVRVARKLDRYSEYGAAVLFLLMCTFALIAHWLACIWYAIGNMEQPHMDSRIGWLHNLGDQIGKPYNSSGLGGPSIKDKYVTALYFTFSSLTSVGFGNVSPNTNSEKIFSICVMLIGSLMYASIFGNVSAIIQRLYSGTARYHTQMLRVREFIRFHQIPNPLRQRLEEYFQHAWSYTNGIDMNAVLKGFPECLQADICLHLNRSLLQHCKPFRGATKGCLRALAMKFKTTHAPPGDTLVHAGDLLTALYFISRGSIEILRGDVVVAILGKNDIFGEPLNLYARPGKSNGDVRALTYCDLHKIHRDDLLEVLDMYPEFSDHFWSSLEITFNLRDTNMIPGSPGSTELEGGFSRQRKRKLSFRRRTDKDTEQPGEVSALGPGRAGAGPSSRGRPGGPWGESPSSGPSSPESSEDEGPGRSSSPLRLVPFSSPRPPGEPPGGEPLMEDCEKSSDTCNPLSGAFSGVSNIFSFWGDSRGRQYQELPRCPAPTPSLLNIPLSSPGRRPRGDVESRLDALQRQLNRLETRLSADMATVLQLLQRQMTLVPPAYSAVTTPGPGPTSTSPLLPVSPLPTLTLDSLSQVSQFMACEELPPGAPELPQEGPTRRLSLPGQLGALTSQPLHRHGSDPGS

| Compound | hERG current change (%, negative = inhibition) at 10uM [%] |
| --- | --- |
| O=C(CNS(=O)(=O)c1c(Cl)cccc1Cl)OCc1csc(-c2ccccc2)n1 | 1.09 |
| CCc1ccc(Nc2cc(C(=O)NCCCN3CCOCC3)c3ccccc3n2)cc1 | -35.5 |
| COCCNC(=O)/C(C#N)=C1\N=C(NC(=O)c2cccs2)c2ccccc21 | 6.86 |
| NC(=O)C1(N2CCCCC2)CCN(C(=O)NC2CCCCC2)CC1 | -6.34 |
| CCn1c(Cc2c(C)[nH]c3ccccc23)nnc1SCC(=O)NCc1ccccc1 | -11.7 |
| CC(=O)Nc1cccc(-c2csc(Nc3ccc(C)cn3)n2)c1 | 0.972 |
| Cc1ccc(S(=O)(=O)NCCSC(C)(C)C)cc1 | -3.99 |
| O=Nc1c(O)n(Cc2ccc(Cl)cc2)c2ccccc12 | -0.245 |
| O=C(O)c1ccc(Sc2ccccn2)c([N+](=O)[O-])c1 | 6.44 |
| COc1ccc(N2CCN(C(=O)COC(=O)c3cccc(S(=O)(=O)Nc4cccc(C)c4)c3)CC2)cc1 | -16.1 |
| Cc1cc(C)nc(CCNC(=O)c2cc(COc3ccc(F)cc3F)on2)n1 | -25.8 |
| COc1cc(CC(CC(=O)O)CC(C)OCc2ccccc2)cc(OC)c1 (stereo not shown) | 9.95 |
| O=C(O)C1CN(c2ncccc2[N+](=O)[O-])C1 | 20.2 |
| N/C(=N\OC(=O)c1ccc(F)cc1)c1cccc([N+](=O)[O-])c1 | 9.84 |
| CCN(CC(=O)Nc1ccc(OC)cc1)C(=O)c1cc2c(s1)CCCCC2 | 16.3 |
| N#Cc1ccc(CSc2nnc(-c3ccncc3)n2CCc2ccccc2)cc1 | -74.1 |
| COc1ccc(C2CC(C(F)(F)F)n3nc(C(=O)NCc4cn(C)nc4C)c(Cl)c3N2)cc1 (stereo not shown) | 11.5 |
| OC(CCCN1CCC(O)(c2ccc(Cl)cc2)CC1)c1ccc(F)cc1 (stereo not shown) | -75.7 |
| CCOc1cc(C2C(C#N)=C(N)OC(C)=C2C(C)=O)cc(Br)c1O (stereo not shown) | 9.7 |
| N#CC1=C(N)Oc2c(O)cc3ccccc3c2C1c1ccsc1 (stereo not shown) | -0.483 |
| O=C(NCCCN1CCCCCC1)C1CC(=O)N(C2CCCC2)C1 (stereo not shown) | 5.99 |
| Cc1ccc(NC(=S)c2ccncc2)c(C)c1 | 3.39 |
| O=C(N/N=C/c1ccncc1)c1ccc(OCc2ccccc2)cc1 | -0.12 |
| CCOC(=O)c1c(NC(=O)COC(=O)c2ccc(C)s2)sc2c1CC(C)(C)NC2(C)C | -20.5 |
| Cc1ccc(SCC(=O)NN=C2CCN(C)CC2)cc1 | 17.4 |
| COc1ccc(C2(c3ccc(OC)cc3)NC(=O)N(CC(=O)Nc3ccc(C(N)=O)cc3)C2=O)cc1 | 16.7 |
| Cc1[nH]c(SCC(=O)Nc2cc(S(C)(=O)=O)ccc2Cl)nc1Cc1ccccc1 | -20.6 |
| C=CCNCCOCCOc1ccc(C)cc1[N+](=O)[O-] | -19.2 |

| Compound | hERG current change (%, negative = inhibition) at 10uM [%] |
| --- | --- |
| COc1cccc(CN(C)CC(O)COc2cc(Cl)ccc2Cl)c1.O=C(O)C(=O)O (stereo not shown) | -42 |
| O=C(Cc1cccc(C(F)(F)F)c1)NCc1cccnc1 | 7.17 |
| N/C(=N\OCC(=O)Nc1ccccc1)c1nonc1N | 11.4 |
| Cc1ccc(F)cc1NC(=O)N1CCCN(c2ccc(C(F)(F)F)cn2)CC1 | -43.3 |
| CCOC(=O)C1CCN(C(=O)c2oc3ccc(S(=O)(=O)N4CCCCCC4)cc3c2C)CC1 | -28.9 |
| CC(=O)O/N=C(\N)c1ccc(-c2csnn2)cc1 | 4.02 |
| CN(C)C(CNC(=O)/C=C/c1cccc(Cl)c1)c1ccccc1 (stereo not shown) | -19.2 |
| O=C(CSc1nc(=O)n2cc(Cl)ccc2n1)Nc1ccc2c(c1)OCO2 | 4.16 |
| Cc1cc(-c2ccccc2)[nH]c(=O)c1S(=O)(=O)c1ccc(Cl)cc1 | 14.9 |
| Cc1cc(N2CCN(c3ccccc3)CC2)n2ncnc2n1 | -31.2 |
| Cc1ccccc1C(=O)N1CC(=O)Nc2ccc(F)cc2C1c1ccccc1 (stereo not shown) | -15.2 |
| Cc1cccc(NC(=O)CS(=O)(=O)c2c[nH]c3ccccc23)c1C | 4.35 |
| C=CCN1C(=O)C(CC(=O)Nc2ccccc2)SC1=Nc1ccc(S(N)(=O)=O)cc1 (stereo not shown) | 12 |
| CSc1nc2ccc(NC(=O)C3CC(=O)N(Cc4ccccc4)C3)cc2s1 (stereo not shown) | -21 |
| O=C(c1cccnc1Nc1ccccc1F)N1CCOCC1 | 11.7 |
| O=S(=O)(Nc1ncccn1)c1ccc(NC(=S)N2CCN(c3cccc(C(F)(F)F)c3)CC2)cc1 | 9.06 |
| Cc1ccc2oc(-c3cccc(NC(=S)NC(=O)/C=C/c4ccco4)c3)nc2c1 | 2.81 |
| CC(C)Cn1c(N)c(C(=O)COC(=O)[C@H](C)NC(=O)c2ccccc2Cl)c(=O)n(C)c1=O | -53.1 |
| O=C(c1ccco1)N1CCN(c2ccc(Cl)c(Cl)c2)CC1 | -29.7 |
| COc1cc(/C=N/NC(=O)c2cc(-c3cccn3C)n[nH]2)cc(OC)c1OC | -22.8 |
| c1ccc(Cn2c(CN3CCCC3)nc3ccccc32)cc1 | -64.6 |
| O=C(COc1coc(CN2CCc3ccccc32)cc1=O)Nc1ccccc1 | -24.7 |
| O=C(NCCCn1ccnc1)c1cc(-c2ccccc2)on1 | -16.3 |
| CCCCN(C)C(=O)C1CCCN(S(=O)(=O)c2ccc3c(c2)oc(=O)n3C)C1 (stereo not shown) | -15.7 |
| O=C(c1coc2ccc(O)cc12)C1CC1 | 12.2 |
| Cc1cccc(/C=C2\CCC(=C3SCCCS3)C2=O)c1 | 5.8 |
| Cc1ccc(S(=O)(=O)N2CCOCC2)cc1NC(=O)CN1CCN(c2ccc(O)cc2)CC1 | -7.73 |
